Out of some 350,000 compounds screened, about 31,000 (8.9%) were called active. The shares of active, inactive and inconclusive entries below differ from those in the screen. Calls follow the shape of the dose curve; as a rule, active = well fitted inhibition curve with a large enough effect; inconclusive = small, poorly fitted or top-dose-only effect; inactive = no such curve, though single readings can be large or run the other way. Where the call is inconclusive, the potency comes from a doubtful curve fit.
What follows are compounds tested against Histone-lysine N-methyltransferase EHMT2 (Homo sapiens) (UniProt Q96KQ7) (assay: qHTS Assay for Inhibitors of Histone Lysine Methyltransferase G9a). Details: G9a H3K9 monomethylation, AlphaScreen, 2 h; activity, negative = inhibition: at 59 µM (top of the series) unless noted.
Sequence of UniProt Q96KQ7 (Q96KQ7 whole entry, looked up): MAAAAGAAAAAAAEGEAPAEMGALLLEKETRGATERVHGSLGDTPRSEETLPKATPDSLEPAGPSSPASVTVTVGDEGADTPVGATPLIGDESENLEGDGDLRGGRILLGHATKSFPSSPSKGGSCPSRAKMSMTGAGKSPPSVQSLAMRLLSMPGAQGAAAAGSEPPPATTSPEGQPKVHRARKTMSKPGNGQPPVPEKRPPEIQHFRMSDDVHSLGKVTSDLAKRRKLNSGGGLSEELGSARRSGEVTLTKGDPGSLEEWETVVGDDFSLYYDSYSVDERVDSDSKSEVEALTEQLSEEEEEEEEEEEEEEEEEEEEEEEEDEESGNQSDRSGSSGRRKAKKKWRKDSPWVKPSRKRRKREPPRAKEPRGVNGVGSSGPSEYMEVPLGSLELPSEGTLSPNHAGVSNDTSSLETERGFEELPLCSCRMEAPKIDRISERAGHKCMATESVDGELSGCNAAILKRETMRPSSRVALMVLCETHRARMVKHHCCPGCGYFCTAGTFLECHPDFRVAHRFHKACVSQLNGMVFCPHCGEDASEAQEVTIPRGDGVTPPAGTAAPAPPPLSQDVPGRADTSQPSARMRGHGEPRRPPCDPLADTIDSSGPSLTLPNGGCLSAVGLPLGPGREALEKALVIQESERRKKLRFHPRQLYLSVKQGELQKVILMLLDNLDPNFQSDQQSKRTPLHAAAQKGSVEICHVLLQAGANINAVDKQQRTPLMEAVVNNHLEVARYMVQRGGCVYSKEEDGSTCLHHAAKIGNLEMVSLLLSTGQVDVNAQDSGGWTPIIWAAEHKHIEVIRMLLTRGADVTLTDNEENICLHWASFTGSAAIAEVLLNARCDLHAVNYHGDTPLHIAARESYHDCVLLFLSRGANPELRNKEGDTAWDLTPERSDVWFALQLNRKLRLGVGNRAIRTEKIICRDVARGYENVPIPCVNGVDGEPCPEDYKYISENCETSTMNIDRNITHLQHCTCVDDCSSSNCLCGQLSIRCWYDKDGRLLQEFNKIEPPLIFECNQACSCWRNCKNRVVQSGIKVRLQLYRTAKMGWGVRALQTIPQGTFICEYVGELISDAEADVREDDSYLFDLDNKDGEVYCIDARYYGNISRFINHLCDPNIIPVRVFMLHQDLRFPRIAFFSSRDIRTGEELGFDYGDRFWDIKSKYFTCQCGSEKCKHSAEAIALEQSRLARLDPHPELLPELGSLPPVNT
How it was run: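 Enzyme 20 nM + cpd, 15 min RT; add b-H3K9 pep 500 nM / SAM 20 uM; 2 h RT; anti-H3K9me1 Ab 0.5 ug/mL + SA donor / anti-rabbit acceptor beads 20 ug/mL each, 10 min; AlphaScreen read.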
In the case of `Cc1ccccc1C(=O)NC(=S)Nc1cccc(NC(=O)C(C)C)c1`, the Potency is reported as active: 8.91 µM.
For `COc1ccc(CNC(=O)c2cc3c(=O)[nH]c4ccccc4c3n2C)c(OC)c1`, the Potency was “inactive”.
In the case of `Cc1ccccc1/C=N/n1c(-c2ccccn2)n[nH]c1=S`, the Potency is reported as active: 0.891 µM.
With `O=C(NCCC1=CCCCC1)C1CCN(S(=O)(=O)c2cnc[nH]2)CC1` the Potency was inconclusive: 11.2 µM [inhibitor, partial curve].
With `COCCN1C(=O)/C(=C/c2ccc(OCc3ccc(C(=O)O)cc3)c(OC)c2)SC1=Nc1ccccc1` the Potency was active: 50.1 µM.
In the case of `O=C(COC(=O)c1ccc2c(c1Cl)C(=O)c1ccccc1C2=O)NC1CC1`, the Potency is reported as inconclusive: 35.5 µM [inhibitor, single point].
`Cc1ccc(-c2c(C(=O)N(C)Cc3ccccc3)oc(=O)c3ccccc23)cc1` was tested, and the Potency was “inactive”.
With `CCOC(=O)CN1C(=O)C(=O)c2cccc(C)c21` the Potency was inconclusive: 89.1 µM [inhibitor, single point].
For `CCCOc1ccc(N2C(=O)CC(SCC(N)C(=O)OCC)C2=O)cc1` (stereo not drawn), the Potency was active: 70.8 µM.
For `C=C(C)Cn1c(SCC(=O)Nc2cccc(C)c2)nc2sc3c(c2c1=O)CCCC3`, the Potency was “inactive”.
With `CCS(=O)(=O)c1ncc(Cl)c(C(=O)Nc2c(C(=O)c3ccc(C)cc3)oc3ccccc23)n1` the Potency was “inactive”.
With `O=C(CCS(=O)(=O)c1nc(-c2ccc3c(c2)OCO3)cc(C(F)(F)F)n1)Nc1ccc(F)cc1F` the Potency was “inactive”.
With `COc1ccc(Oc2ncc3nc(-c4cc(F)cc(F)c4)c(=O)n(C)c3n2)cc1` the activity, negative = inhibition was inactive: -6.73% [at 12.7 µM].
`O=C(NCC(c1cccnc1)N1CCc2ccccc2C1)C(=O)Nc1ccc(F)cc1F` (stereo not drawn) was tested, and the Potency was inconclusive: 2 µM [inhibitor, full curve, poor fit].
For `CCOC(=O)c1c(NC(=O)CSC(=S)N(C)C)sc(C)c1C`, the Potency was inconclusive: 89.1 µM [inhibitor, single point].
With `COc1cc(CCC(=O)Nc2cccc(C(F)(F)F)c2)cc(OC)c1OC` the Potency was active: 44.7 µM.
With `CC1=C/C(=C(/c2cc(C)c(O)c(Br)c2)c2ccccc2S(=O)(=O)O)C=C(Br)C1=O` the activity, negative = inhibition was inactive: 3.11% [at 2.33 µM].
With `Cc1cc(/C=C2\C(=N)N3N=C(C(C)C)SC3=NC2=O)c(C)n1-c1ccccc1` the Potency was “inactive”.
For `Cc1c(C)n(C(=O)CSc2ncn[nH]2)c2ccccc12`, the Potency was inconclusive: 89.1 µM [inhibitor, single point].
For `CCOc1ccc(Nc2nc(N)c([N+](=O)[O-])c(NCc3ccccc3)n2)cc1`, the Potency was inconclusive: 4.47 µM [inhibitor, partial curve, poor fit].
For `Cc1ccc(NC(=O)C2CCN(C(=O)c3cnn(-c4ccccc4)c3-n3cccc3)CC2)cc1C`, the Potency was “inactive”.
In the case of `CCc1ccc(S(=O)(=O)N/N=C\c2cn(CC(N)=O)c3ccccc23)cc1`, the Potency is reported as inconclusive: 89.1 µM [inhibitor, single point].
`CCCC(=O)Nc1ccc(NC(=S)NC(=O)c2ccccc2[N+](=O)[O-])cc1` was tested, and the Potency was inconclusive: 15.8 µM [inhibitor, single point].
`S=C(Nc1ccccc1)Nc1cccc(Br)c1` was tested, and the Potency was “inactive”.
In the case of `Cc1cccc(CCNC(=O)c2nn(C)c3c2CSc2ccccc2-3)c1`, the Potency is reported as “inactive”.
For `CC(=O)c1ccccc1OCCCCN1CCCCC1`, the Potency was active: 25.1 µM.
With `COc1cccc(OC)c1OCC(C)CNCC1CCCO1` (stereo not drawn) the Potency was inconclusive: 3.55 µM [inhibitor, partial curve, poor fit].
In the case of `Cc1ccc(C(C)n2cc(C(=O)NCc3ccccn3)nn2)cc1` (stereo not drawn), the Potency is reported as “inactive”.
With `COC(=O)C(C(=O)OC)C(c1ccccc1)C(C(=O)c1ccccc1)[N+](=O)[O-]` (stereo not drawn) the Potency was active: 50.1 µM.
`CC(C)OC(=O)CCCCCN1C(=O)CSC1=S` was tested, and the Potency was inconclusive: 79.4 µM [inhibitor, single point].
With `CC(C)=NNc1nc(-c2ccccc2)cs1` the Potency was inconclusive: 11.2 µM [inhibitor, partial curve, poor fit].
With `Cc1ccc(CN2CCN(c3ncccn3)CC2)o1` the Potency was inconclusive: 79.4 µM [inhibitor, single point].
For `O=[N+]([O-])c1cccc(-c2ccc(CN3CCN(c4ccccc4)CC3)o2)c1`, the Potency was active: 39.8 µM.
`Cc1cc(/C=N/n2cnnc2)c(C)n1-c1ccc2c(c1)OCO2` was tested, and the Potency was inconclusive: 100 µM [inhibitor, single point].
For `O=C(NCc1ccco1)c1ccc2nccnc2c1`, the Potency was “inactive”.
With `O=C(Nc1ccccc1)N(O)c1ccc(Cl)cc1` the activity, negative = inhibition was inactive: -37.5% [at 12.7 µM].
With `C=C1CCN([C@H](C(=O)OCc2cccc(C)c2)C(C)C)S(=O)(=O)c2ccccc21` the Potency was inconclusive: 0.891 µM [inhibitor, single point].
For `COc1cc(CN(C)CC2CCCN(CCc3cccc(C(F)(F)F)c3)C2)ccc1O` (stereo not drawn), the Potency was active: 44.7 µM.
With `CC(=O)N=c1sc2nc3ccccc3nc2n1N(C(C)=O)C(C)=O` the Potency was inconclusive: 0.891 µM [inhibitor, single point].
In the case of `CCCc1cc(C(=O)Cc2ccc(F)cc2)c(O)cc1O`, the activity, negative = inhibition is reported as inactive: -12.1% [at 12.7 µM].
For `Cc1cccc2cc(-c3nc4ccc(C(=O)O)cc4[nH]3)c(=O)oc12`, the Potency was active: 50.1 µM.
With `COc1ccc(-c2cc(C(F)(F)F)n3nc(C(=O)Nc4sc5c(c4C(=O)OC(C)C)CCCC5)cc3n2)cc1OC` the Potency was inconclusive: 35.5 µM [inhibitor, single point].
`O=C1CCC/C(=N\NC(=O)c2ccc(NS(=O)(=O)c3ccc(Br)cc3)cc2)C1` was tested, and the Potency was active: 79.4 µM.
In the case of `CCOc1ccc(CN(C(=O)c2cc(=O)c3cc(Cl)ccc3o2)C2CCS(=O)(=O)C2)cc1` (stereo not drawn), the Potency is reported as “inactive”.
With `CCc1ccc(CNc2ncnc3onc(-c4ccc(Cl)cc4)c23)cc1` the Potency was “inactive”.
`COC(=O)C1=C(N)Oc2cc(C)n(CC3CCCO3)c(=O)c2C1c1ccc(Cl)c(Cl)c1` (stereo not drawn) was tested, and the Potency was inconclusive: 14.1 µM [inhibitor, partial curve, poor fit].
`COc1ccc(C)cc1NC(=O)C1CCN(S(C)(=O)=O)CC1` was tested, and the Potency was inconclusive: 89.1 µM [inhibitor, single point].
In the case of `Cc1csc(SCC(=O)c2ccc(S(=O)(=O)N3CCOCC3)cc2)n1`, the Potency is reported as active: 28.2 µM.

— PubChem BioAssay AID504332 (National Center for Advancing Translational Sciences (NCATS), 2011)
% is scaled to controls: 0 for no effect and ±100 for the full control effect; potency is read from the fitted curve at half-maximal effect; tags tell the direction and shape of the fitted curve.
Also: nearly all actives have a fitted effect of over 75% in size.
